{"source": "PubChem BioAssay AID624418", "about": "(National Center for Advancing Translational Sciences (NCATS), 2012)", "note": "Among all 410,000 compounds or so, about 530 (0.13%) were called active. Inconclusive results, whose numbers are uncertain, are shown with a selection of clear calls. Calls follow the shape of the dose curve; as a rule, active = well fitted inhibition curve with a large enough effect; inconclusive = small, poorly fitted or top-dose-only effect, or another doubt; inactive = no such curve, though single readings can be large or run the other way. Where the call is inconclusive, the potency comes from a doubtful curve fit. % is scaled to controls: 0 for no effect and ±100 for the full control effect; potency is read from the fitted curve at half-maximal effect."}
{"assay": "qHTS of GLP-1 Receptor Inverse Agonists: Cytotox Screen", "settings": "HEK293 cAMP-luciferase reporter cells, luminescence, 24 h; activity change, negative = inhibition: at 38.3 µM (top of the series) unless noted", "procedure,_shortened": "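A 23 nL compound transfer followed 12 hours of cell culture at 37 deg C; exposure then lasted 24 hr. Luciferase assay detection reagent was dispensed and plates read for luminescence after a 12 min room-temperature wait.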"}
{"smiles": "O=C(OCCc1cc2ccccc2c(=O)o1)N1CCOCC1", "Potency": "inconclusive: 5.01 µM [inhibitor, full curve, poor fit]"}
{"smiles": "COC(=O)C1CCN(C(=O)C2CC(=O)N(c3ccc(C)c(Cl)c3)C2)CC1", "note": "(stereo not drawn)", "Potency": "inconclusive: 2.51 µM [inhibitor, partial curve, poor fit]"}
{"smiles": "CCOc1ccc(CN(C)CC(O)COC(c2ccc(OC)cc2)c2ccc(OC)cc2)cc1", "note": "(stereo not drawn)", "Potency": "inconclusive: 28.2 µM [inhibitor, single point]"}
{"smiles": "O=C(NC(=S)N1CCN(Cc2ccccc2)CC1)c1ccccc1", "Potency": "inconclusive: 7.94 µM [inhibitor, single point]"}
{"smiles": "C=CCOC(=O)C1=C(C)NC(=S)NC1/C=C/c1ccccc1", "note": "(stereo not drawn)", "Potency": "inconclusive: 25.1 µM [inhibitor, partial curve, poor fit]"}
{"smiles": "COc1ccc(C[C@H]2CN3C(=NC[C@@H]3Cc3ccc(O)cc3)N2C[C@H](C)NC(=O)c2ccc(C)c(Br)c2)cc1", "Potency": "inconclusive: 28.2 µM [inhibitor, single point]"}
{"smiles": "O=C(NCc1ccc(F)cc1Cl)c1ccc(CSCc2ccccc2Cl)o1", "activity change, negative = inhibition": "inactive: -0.349%"}
{"smiles": "COc1ccnc(CSC(N)=Nc2ccccc2OC)c1", "Potency": "inconclusive: 28.2 µM [inhibitor, single point]"}
{"smiles": "O=[N+]([O-])c1cc(S(=O)(=O)Oc2ccccc2)ccc1Cl", "Potency": "inconclusive: 12.6 µM [inhibitor, partial curve, poor fit]"}
{"smiles": "COc1ccccc1NC(=O)Cn1c(=O)n(Cc2nc(C)no2)c(=O)c2cc3c(cc21)OCO3", "activity change, negative = inhibition": "inactive: 0.697%"}
{"smiles": "Cc1ccc(S(=O)(=O)/N=C(/c2ccc(F)cc2)N2CCCCC2)cc1", "activity change, negative = inhibition": "inactive: 5.29%"}
{"smiles": "COc1cc(NC(=O)c2ccc(-c3ccc(Br)cc3)o2)ccc1NC(=O)C(C)C", "Potency": "inconclusive: 31.6 µM [inhibitor, single point]"}
{"smiles": "CCOC(=O)CCSCC(=O)N1N=C(c2cccs2)CC1c1ccc(C)cc1", "note": "(stereo not drawn)", "activity change, negative = inhibition": "inactive: -14.4%"}
{"smiles": "O=C(O)c1ccccc1Nc1ccc([N+](=O)[O-])cc1C(=O)O", "Potency": "inconclusive: 31.6 µM [inhibitor, partial curve, poor fit]"}
{"smiles": "CC(C)CNC(=O)c1ccccc1NC(=O)CN(c1ccc2c(c1)OCCO2)S(C)(=O)=O", "Potency": "inconclusive: 14.1 µM [inhibitor, single point]"}
{"smiles": "CC(C)NC(=S)NC(=O)/C=C/c1ccc(F)cc1", "Potency": "inconclusive: 28.2 µM [inhibitor, single point]"}
{"smiles": "CCOC(=O)c1[nH]c(C)c(C(=O)NCCc2ccccc2)c1C", "activity change, negative = inhibition": "inactive: -0.786%"}
{"smiles": "CN(CCOc1ccc(Cl)cc1)C(=O)c1cc(-c2ccco2)nc2ccccc12", "Potency": "inconclusive: 28.2 µM [inhibitor, single point]"}
{"smiles": "FC(F)(F)c1cccc(NC(=S)NCc2ccccc2)c1", "Potency": "inconclusive: 12.6 µM [inhibitor, single point]"}
{"smiles": "O=C(CNC(=O)c1ccncc1)N/N=C/c1cc(Br)ccc1OCc1ccccc1", "Potency": "inconclusive: 11.2 µM [inhibitor, single point]"}
{"smiles": "Cc1sc2c(c1C)C(O)=C(C(=O)Nc1ccccc1)S(=O)(=O)N2C", "Potency": "inconclusive: 1 µM [inhibitor, full curve, poor fit]"}
{"smiles": "O=[N+]([O-])c1ccc(Cl)cc1C=NNc1ccccn1", "Potency": "inconclusive: 11.2 µM [inhibitor, partial curve, poor fit]"}
{"smiles": "CN(C)S(=O)(=O)c1ccc(NC(=O)/C=C/c2ccccc2Cl)cc1", "activity change, negative = inhibition": "inactive: 15.9% [at 1.53 µM]"}
{"smiles": "Cc1ccc(N2C(=O)[C@@H]3C(C(=O)CCN4C(=O)c5ccccc5C4=O)=NN[C@@H]3C2=O)cc1", "Potency": "inconclusive: 28.2 µM [inhibitor, single point]"}
{"smiles": "CC(=O)Nc1ccc(S(=O)(=O)N2CCC(c3nc4ccc(C)cc4[nH]3)CC2)cc1", "activity change, negative = inhibition": "inactive: 7.11%"}
{"smiles": "COc1ccccc1C1/C(=C(/O)c2ccc(C)cc2)C(=O)C(=O)N1CC(C)O", "note": "(stereo not drawn)", "activity change, negative = inhibition": "inactive: -4.76%"}
{"smiles": "CCCCSC(=S)NC1CCS(=O)(=O)C1", "note": "(stereo not drawn)", "Potency": "inconclusive: 11.2 µM [inhibitor, single point]"}
{"smiles": "Cc1cc(C)cc(NC(=O)CN2CCN(C(=O)C3CCCO3)CC2)c1", "note": "(stereo not drawn)", "activity change, negative = inhibition": "inactive: -20%"}
{"smiles": "CC(NC(=O)c1ccco1)C1COc2ccccc2O1", "note": "(stereo not drawn)", "activity change, negative = inhibition": "inactive: 14.6%"}
{"smiles": "Nc1ccc(N2CCN(C(=O)c3ccco3)CC2)cc1", "Potency": "inconclusive: 28.2 µM [inhibitor, single point]"}
{"smiles": "CC(=NNc1nc2ccccc2o1)c1ncccn1", "Potency": "inconclusive: 5.62 µM [inhibitor, full curve, poor fit]"}
{"smiles": "Cn1nnnc1SCCNC(=O)C1CCC(=O)N(CCc2cccc(F)c2)C1", "note": "(stereo not drawn)", "activity change, negative = inhibition": "inactive: 2.53%"}
{"smiles": "S=C(NCC1CCCO1)Nc1ccc(Cl)c(Cl)c1", "note": "(stereo not drawn)", "Potency": "inconclusive: 22.4 µM [inhibitor, single point]"}
{"smiles": "CC(=O)Nc1ccc(Nc2ccc(S(=O)(=O)C(F)(F)F)cc2[N+](=O)[O-])cc1", "Potency": "inconclusive: 7.08 µM [inhibitor, partial curve, poor fit]"}
{"smiles": "Cc1[nH]c2ccccc2c1/C=N/NC(=S)NC(C)C", "Potency": "inconclusive: 20 µM [inhibitor, single point]"}
{"smiles": "CCOC(=O)Cn1nnnc1CN(Cc1cccs1)Cc1cc2cc(C)cc(C)c2[nH]c1=O", "Potency": "inconclusive: 10 µM [inhibitor, single point]"}
{"smiles": "O=C(Nc1ccc(F)cc1)C1C(c2ccccc2)C1(Cl)Cl", "note": "(stereo not drawn)", "Potency": "inconclusive: 12.6 µM [inhibitor, single point]"}
{"smiles": "CCCCC[C@@H](C)N1C[C@@H](COCc2ccccc2)Oc2cc(N3CC[C@@H](N(C)C)C3)ccc2S1(=O)=O", "Potency": "inconclusive: 28.2 µM [inhibitor, single point]"}
{"smiles": "CC(=NNC(N)=S)c1ccc2cc3c(cc2c1)OCO3", "Potency": "inconclusive: 2.51 µM [inhibitor, full curve, poor fit]"}
{"smiles": "Cc1noc(C)c1NC(=O)Nc1cccc2c1O[C@@H](CN(C)C(=O)Nc1ccc3c(c1)OCO3)[C@@H](C)CN([C@H](C)CO)C2=O", "Potency": "inconclusive: 0.501 µM [inhibitor, full curve, poor fit]"}
{"smiles": "COCCNC(=O)CCCn1c(=O)c2ccccc2n(Cc2cccc([N+](=O)[O-])c2)c1=O", "Potency": "inconclusive: 3.16 µM [inhibitor, partial curve, poor fit]"}
{"smiles": "N=c1c2c(n(Cc3ccc(F)cc3)c3c1CCC3)CCC2", "Potency": "inconclusive: 11.2 µM [inhibitor, single point]"}
{"smiles": "Cc1c(Cl)cccc1NC(=S)NC(=O)c1ccccc1", "Potency": "inconclusive: 10 µM [inhibitor, single point]"}
{"smiles": "COc1ccccc1N1CCN(C(=O)c2[nH]c(C(F)(F)F)nc2-c2ccccc2)CC1", "Potency": "inconclusive: 1.58 µM [inhibitor, full curve]"}
{"smiles": "Cc1cc(NCCCN2CCOCC2)n2nc(C)c(-c3ccc(F)cc3)c2n1", "activity change, negative = inhibition": "inactive: -2.1%"}
{"smiles": "CC1COC(=O)C(NNc2ccc(Cl)c(Cl)c2)=N1", "note": "(stereo not drawn)", "Potency": "inconclusive: 0.891 µM [inhibitor, full curve, poor fit]"}
{"smiles": "CCn1cnc2cc(NC(=O)c3ccc(C)cc3)ccc21", "activity change, negative = inhibition": "inactive: -11.2%"}
{"smiles": "Cc1ccc(-n2cc(CN3CCC(CO)(Cc4cccc(C(F)(F)F)c4)CC3)cn2)cc1", "Potency": "inconclusive: 28.2 µM [inhibitor, single point]"}
{"smiles": "CCOc1ccc(C(CC(=O)Nc2ccc(C(=O)OC)cc2)N2Cc3ccccc3C2=O)cc1OC", "note": "(stereo not drawn)", "activity change, negative = inhibition": "inactive: -3.94%"}
{"smiles": "CC(C)(C)CN1CCNC(=O)C1CC(=O)NCCc1ccccc1F", "note": "(stereo not drawn)", "activity change, negative = inhibition": "inactive: -18.3%"}
{"smiles": "CCOC(=O)c1[nH]c(C)c(C(=O)OCc2ccccc2F)c1C", "Potency": "inconclusive: 5.01 µM [inhibitor, full curve]"}
{"smiles": "Cc1ccccc1CNC(=O)c1cc2cccc3c2n1CC(C)S3", "note": "(stereo not drawn)", "activity change, negative = inhibition": "inactive: 0.0601%"}
{"smiles": "COc1cc(C(=O)NNC(=O)C2CC=CCC2C(=O)O)cc(OC)c1OC", "note": "(stereo not drawn)", "Potency": "inconclusive: 28.2 µM [inhibitor, single point]"}
{"smiles": "CCOC(=O)N1CCC(NC(=O)CC(NS(=O)(=O)c2ccc(Cl)cc2)c2ccco2)CC1", "note": "(stereo not drawn)", "activity change, negative = inhibition": "inactive: -1.9%"}
{"smiles": "COC(=O)c1cc(OC)c(OC)cc1NC(=S)N1CCN(c2ccccc2)CC1", "activity change, negative = inhibition": "inactive: -10.4%"}
{"smiles": "Cc1ccccc1OCC(O)CN1CCCCC1", "note": "(stereo not drawn)", "activity change, negative = inhibition": "inconclusive: -30.2% [inhibitor]"}
{"smiles": "CC(=O)Nc1ccc(NC(=O)c2nc(SCc3ccccc3C)ncc2Cl)cc1", "Potency": "inconclusive: 12.6 µM [inhibitor, partial curve, poor fit]"}
{"smiles": "Cc1cccn2c(=O)cc(COc3ccc(NC(=O)C(C)Oc4ccccc4)cc3)nc12", "note": "(stereo not drawn)", "activity change, negative = inhibition": "inactive: -6.88%"}
{"smiles": "CC1(C)NC(=O)N(CC(=O)Nc2ccc(-c3ccccc3)cc2)C1=O", "Potency": "inconclusive: 3.55 µM [inhibitor, full curve, poor fit]"}
{"smiles": "Cc1ccc(Cl)cc1-n1ncc2c(NCCC3=CCCCC3)ncnc21", "activity change, negative = inhibition": "inactive: -8.24%"}
{"smiles": "c1ccc(-n2nnnc2-c2cccc3ccccc23)cc1", "Potency": "inconclusive: 3.16 µM [inhibitor, full curve]"}
{"smiles": "Cc1cc2oc(C(=O)Nc3sc4c(c3C(=O)NCc3ccccc3)CCCC4)cc(=O)c2cc1C", "activity change, negative = inhibition": "inactive: 35.6%"}
{"smiles": "c1ccc(COc2cccc(-c3cc4nc(NCCc5ccncc5)ccn4n3)c2)cc1", "Potency": "inconclusive: 28.2 µM [inhibitor, single point]"}
{"smiles": "CN(Cc1cnn(-c2ccccc2)c1)C(=O)c1cccc(S(=O)(=O)N(C)c2ccccc2)c1", "activity change, negative = inhibition": "inactive: -7.94%"}
{"smiles": "COc1ccc(CCNC(=O)c2ccc(-c3ccc([N+](=O)[O-])cc3Cl)o2)cc1OC", "Potency": "inconclusive: 28.2 µM [inhibitor, single point]"}
{"smiles": "CCC(CC)C(=O)NCc1nc2cccnc2n1Cc1ccc(F)cc1", "activity change, negative = inhibition": "inactive: 25.9%"}
{"smiles": "Fc1ccc(C2=NNC(=NCc3ccccc3)SC2)cc1F", "Potency": "inconclusive: 28.2 µM [inhibitor, single point]"}
{"smiles": "Cc1oc(-c2ccc(Cl)cc2)nc1CN1CCCC(C(=O)NCCCN2CCOCC2)C1", "note": "(stereo not drawn)", "Potency": "inconclusive: 10 µM [inhibitor, single point]"}
